Experimental data from publication PMC4336329 (PLoS ONE, 2015).
In all, about 310,000 compounds went through this assay and about 2,200 (0.71%) showed an effect of 50% or more. Effects have a minus sign here. This is one part of the list.

Target: human ether-à-go-go-related gene (hERG) potassium channel (human, UniProt Q12809)
Test: primary screen, population patch clamp on CHO cells stably expressing hERG

Sequence of human ether-à-go-go-related gene (hERG) potassium channel (Q12809 whole entry, looked up): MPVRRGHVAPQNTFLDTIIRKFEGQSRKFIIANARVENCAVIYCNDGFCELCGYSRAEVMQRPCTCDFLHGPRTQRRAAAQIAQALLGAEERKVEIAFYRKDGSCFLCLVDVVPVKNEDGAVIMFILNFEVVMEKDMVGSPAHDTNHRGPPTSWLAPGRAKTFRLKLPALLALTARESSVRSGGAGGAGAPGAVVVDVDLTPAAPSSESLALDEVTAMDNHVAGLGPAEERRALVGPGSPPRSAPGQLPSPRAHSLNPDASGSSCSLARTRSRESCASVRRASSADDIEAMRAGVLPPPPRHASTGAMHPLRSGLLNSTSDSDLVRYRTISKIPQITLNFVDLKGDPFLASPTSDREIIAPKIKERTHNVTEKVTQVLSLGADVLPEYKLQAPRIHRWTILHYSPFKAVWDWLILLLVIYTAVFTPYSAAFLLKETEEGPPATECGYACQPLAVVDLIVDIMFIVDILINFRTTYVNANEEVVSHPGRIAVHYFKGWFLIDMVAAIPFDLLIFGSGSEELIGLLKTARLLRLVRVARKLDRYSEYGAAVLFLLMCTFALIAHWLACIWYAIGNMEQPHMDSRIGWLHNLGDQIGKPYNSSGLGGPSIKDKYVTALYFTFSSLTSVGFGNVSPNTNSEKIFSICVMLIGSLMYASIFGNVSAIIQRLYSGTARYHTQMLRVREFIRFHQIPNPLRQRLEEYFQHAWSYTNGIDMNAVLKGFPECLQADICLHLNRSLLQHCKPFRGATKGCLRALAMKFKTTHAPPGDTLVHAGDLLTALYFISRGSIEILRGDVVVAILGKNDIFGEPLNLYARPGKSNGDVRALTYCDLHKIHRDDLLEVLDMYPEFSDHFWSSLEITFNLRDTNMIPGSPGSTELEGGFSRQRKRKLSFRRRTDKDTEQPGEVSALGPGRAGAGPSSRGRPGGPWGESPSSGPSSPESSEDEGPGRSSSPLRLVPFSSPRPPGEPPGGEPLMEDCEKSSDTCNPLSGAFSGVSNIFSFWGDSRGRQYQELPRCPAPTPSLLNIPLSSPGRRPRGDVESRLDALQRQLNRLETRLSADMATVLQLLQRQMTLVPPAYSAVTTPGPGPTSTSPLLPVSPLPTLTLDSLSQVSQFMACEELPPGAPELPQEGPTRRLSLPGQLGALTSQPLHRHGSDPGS

Row | SMILES | hERG current change (%, negative = inhibition) at 1uM [%]
1 | COc1cccc(NC(=O)N2CCCC(C(=O)NC3CCCCC3C)C2)c1 (stereo not drawn) | 12
2 | O=S(=O)([N-]c1nc2ccccc2nc1-n1cc[n+](Cc2ccccc2)c1)c1ccccc1 | 7.68
3 | COC(=O)C(C(C)C)N1CCc2c(C)nc3c(C#N)cnn3c21 (stereo not drawn) | 10.3
4 | CCOC(=O)N1CCN(C(=S)NC(=O)C23CC4CC(CC(C4)C2)C3)CC1 | 6.06
5 | Cc1cnc(C(=O)NCCc2ccc(C(F)(F)F)cc2)cn1 | 11.7
6 | Cc1ccc(S(=O)(=O)N2CCC(C(=O)OC(C)C(=O)NC3CCCCC3C)CC2)cc1C (stereo not drawn) | 6.11
7 | Cc1ccc(N2C(=O)c3ccc(N)cc3C2=O)cc1C | 4.13
8 | O=C(Nc1ccc(CN2CCOCC2)cc1)c1ccc2ccccc2c1 | -23.7
9 | Cc1ccc(-c2nnc(SCC(=O)N3CCCC3)o2)cc1 | 4.08
10 | CN(C)c1ccc(CN2CCC(C(N)=O)CC2)cc1.O=C(O)C(=O)O | 15.1
11 | O=S1(=O)CCC(SCc2nc3sccn3c2Br)C1 (stereo not drawn) | 3.17
12 | COc1ccc(-c2cc(C)no2)cc1S(=O)(=O)N(C)c1ccc(C)c(C)c1 | 9.2
13 | C=CCn1c(SCCN2CCCCC2)nc2c1c(=O)[nH]c(=O)n2C | -27.4
14 | Cc1cc(C)cc(CC(Cc2nc3ccccc3[nH]2)c2nc3ccccc3[nH]2)c1 (stereo not drawn) | 12.7
15 | CCS(=O)(=O)n1nc(C(=O)N2CCOCC2)nc1N | 11.4
16 | COc1nc(Cl)cn(-c2ccc(C)cc2)c1=O | -3.71
17 | O=C(Nc1ccc(Cl)cc1C(=O)NCCN1CCOCC1)c1ccco1 | -1.49
18 | O=C(CSc1nnc(CN2CCOCC2)n1-c1ccc(Cl)cc1)N1CCc2ccccc21 | 14.2
19 | CCOC(=O)c1ccc(N2C(=O)C(CC(N)=O)N(CCc3ccc(OC)c(OC)c3)C2=S)cc1 (stereo not drawn) | 13.9
20 | CCc1ccc(NC(=O)C2CCN(S(=O)(=O)c3ccc4c(c3)NC(=O)C(C)S4)CC2)cc1 (stereo not drawn) | 17
21 | Cc1ccc(NC(=O)CCc2c(C)nn(-c3ccc(N4CCOCC4)nn3)c2C)cc1 | -2.77
22 | O=C(Nc1cccc(-c2cccc(Cl)c2)c1)C1CCN(Cc2ccccn2)CC1 | 1.65

Row | SMILES | hERG current change (%, negative = inhibition) at 1uM [%]
23 | c1ccc(-c2nc(N3CCN(c4ccccc4)CC3)nc(-n3ccnc3)n2)cc1 | 4.5
24 | CC(c1ccco1)N(C(=O)c1ccc(C(F)(F)F)cc1)c1ccccn1 (stereo not drawn) | 3.77
25 | Clc1cncc(Cl)c1N/N=C/c1ccccc1 | 6.18
26 | COCCNC(=O)CN(Cc1cccs1)C(=O)CCC(=O)Nc1nccs1 | 15.8
27 | N#CC1=C(S)N(c2ccc(F)cc2)C2(CCCCC2)NC1=O | -6.02
28 | Oc1ccc(F)c2cccnc12 | 14.3
29 | Cc1nc2cc(-c3cccc(F)c3)nn2c(C)c1CCC(=O)NC(C)CCc1ccco1 (stereo not drawn) | -11.6
30 | CCN(CC)c1ccc(NC(=O)c2c(OC)cccc2OC)c(C)c1 | 11.6
31 | CCN(CC(=O)Nc1c(F)cccc1F)C(=O)c1ccc(=O)[nH]c1 | 12.6
32 | COc1ccc(NC(=O)C2=C(C)Nc3nc(CCCO)nn3C2c2ccc(OC)c(OC)c2)cc1 (stereo not drawn) | 14.7
33 | Cn1c(N)c(C(=O)COC(=O)C2CCCN2C(=O)c2cccs2)c(=O)n(C)c1=O (stereo not drawn) | 9.65
34 | CC(=O)c1c(COC(=O)c2cccnc2)nc2ccccc2[n+]1[O-] | 7.9
35 | COC(=O)c1cccc(S(=O)(=O)N(Cc2ccco2)Cc2cc3ccc(OC)cc3[nH]c2=O)c1 | 10.7
36 | O=C(O)CCC(=O)NCCC1=c2ccccc2=N/C1=C\c1c(O)n(Cc2ccc(F)cc2)c(=S)[nH]c1=O | 12.2
37 | CCOc1ccc(C(=O)Nc2c(C(N)=O)oc3ccccc23)cc1 | 16.1
38 | O=C(CCc1c[nH]c2ccccc12)N/N=C/c1ccc2c(c1)OCO2 | 2.38
39 | O=C(Nc1cc(C(=O)N2CCCC2)ccc1N1CCCC1)C1CC1 | -1.85
40 | COC(=O)NCc1cc2cc(Cl)ccc2[nH]1 | -4.99
41 | O=c1cc(Cc2ccccc2)[nH]c(=S)[nH]1 | 9.73
42 | Cc1ccc(NC(=O)C2CCN(C(=O)c3ccccc3C)CC2)nc1 | 8.44
43 | COc1ccc(-c2nc(-c3cccc(C(F)(F)F)c3)no2)cc1OC | 7.94
44 | CCCCn1c(N)c(N(CCOC)C(=O)c2cnc(C)cn2)c(=O)[nH]c1=O | 1.79

Row | SMILES | hERG current change (%, negative = inhibition) at 1uM [%]
45 | Cc1cccc(C(=O)OCC(=O)NC2CCCCCCC2)c1 | 15.3
46 | NS(=O)(=O)c1cccc(NC(=O)COC(=O)c2cc(-c3ccc(Cl)cc3)nc3ccccc23)c1 | 10.8
47 | Cc1nc(C)c(-c2csc(NCc3ccccc3)n2)s1 | 3.64
48 | CCCOc1ccc(/C=N/NC(=O)C2CC2)c(OCCC)c1 | 15
49 | Cc1ccc2cc(CN(CCN(C)C)C(=S)Nc3ccccc3)c(=O)[nH]c2c1C | 5.74
50 | CCOc1ccc(C(CC(=O)O)n2cnnn2)cc1 (stereo not drawn) | 3.56
51 | CN1CCC(OC(=O)COc2ccc(Cl)cc2Cl)CC1.Cl | -3.11
52 | CCCN1CCN(C(c2cc3cc(OCC)ccc3[nH]c2=O)c2nnnn2C2CCCCC2)CC1 (stereo not drawn) | -13.8
53 | COc1cccc(N(CC(=O)NC2CCCC2)C(=O)CCC(=O)Nc2cc(C)on2)c1 | 3.51
54 | CC1=NN(C(=O)c2ccccc2-n2cccc2)C(O)(C(F)(F)F)C1 (stereo not drawn) | 20
55 | CN1C(=O)c2ccccc2C(C(=O)O)C1c1cccc(F)c1 (stereo not drawn) | 6.04
56 | C[C@H]1C[C@H]2[C@@H]3CCC4=CC(=O)C=C[C@]4(C)[C@@]3(Cl)[C@@H](O)C[C@]2(C)[C@@]1(O)C(=O)CO | 4.71
57 | O=[N+]([O-])c1ccc(S(=O)(=O)Nc2ncccn2)cc1 | 16
58 | CCN1CCN(C(c2cccs2)C(C)NC(=O)c2ccccc2OC)CC1 (stereo not drawn) | -6.8
59 | COc1ccc(C(=O)N/N=C/c2c(C)nn(-c3ccccc3)c2OC)cc1 | -2.56
60 | O=C(CSc1cn[nH]n1)Nc1nc2ccccc2s1 | 6.74
61 | Brc1ccccc1-c1nc(-c2ccccc2)no1 | 1.81
62 | O=C(O)CCC(=O)Nc1cccc(-c2nnc(-c3ccccc3)o2)c1 | 16.6
63 | CCOCCN1CCN(c2c(CC)c(C)nc3cc(-c4cc(OC)cc(OC)c4)nn23)CC1 | -14
64 | O=C(c1ccc(CS(=O)(=O)Cc2ccc(Cl)cc2)o1)N1CCCC1 | -6.4
65 | Cc1ccc(OC(=S)Nc2ccc(F)cc2)cc1 | 4.09
66 | CCCSc1nnc(NC(=O)Cc2ccc(OC)c(OC)c2)s1 | 10.4

Row | SMILES | hERG current change (%, negative = inhibition) at 1uM [%]
67 | Cc1ccc(N=Nc2[nH]c3ccccc3c2O)cc1 | 8.3
68 | Cc1cc(NC(=O)CSc2nnc(-c3cccc(F)c3)n2N)no1 | 9.45
69 | CCN(CC)CCSc1nnc2c3cc(F)ccc3n(Cc3ccccc3)c2n1 | -53.8
70 | COC(=O)C1CCN(C(=O)c2ccc(Cl)c(S(=O)(=O)NCc3cccnc3)c2)CC1 | 17.9
71 | Cc1cccc2c(C(=O)N3CCN(C(=O)c4ccco4)CC3)cc(-c3cccc(Br)c3)nc12 | 4.98
72 | CC(Sc1cccc[n+]1[O-])C(=O)Nc1ccc(Oc2ccccc2)cc1 (stereo not drawn) | 7.8
73 | COc1ccc(-c2cc(=O)oc3c(C)c(OC(C)C(=O)N4C[C@H]5C[C@@H](C4)c4cccc(=O)n4C5)ccc23)cc1 (stereo partly drawn) | -19.7
74 | CCn1c(SCC(=O)N2CCCC2)nc2ccccc21 | 6.29
75 | CCc1ccc(OCC(=O)NC(=S)Nc2ccc(C(C)=O)cc2)c(Br)c1 | 6.13
76 | CC1(C)COC(c2cccn2Cc2ccc(F)cc2Cl)=N1 | 15.9
77 | CCN(C(=O)COC(=O)c1ccccc1SCC(=O)N1CCCC1)C1CCS(=O)(=O)C1 (stereo not drawn) | 12.6
78 | CCN(C(=O)COC(=O)c1nc2nc(C)cc(C)n2n1)C1CCS(=O)(=O)C1 (stereo not drawn) | 11.2
79 | CCc1ccccc1NC(=O)N1CCC(NC(=O)C(Cc2ccccc2)NC(C)=O)CC1 (stereo not drawn) | 3.95
80 | COC(=O)C1=CN(c2ccc(OC)cc2)C=C(C(=O)OC)C1c1cc(OC)c(OC)cc1OC | 1.36
81 | CN(C)c1nc(-c2ccccn2)nnc1-c1ccccc1 | 11.9
82 | COc1ccccc1C1NC(=O)CCC1[N+](=O)[O-] (stereo not drawn) | 14.4
83 | Cc1ccc2cccc(NC(=S)NC(=O)c3ccccc3)c2n1 | 9.05
84 | COC(=O)C1CC23C=CCN4CCC5(c6ccccc6NC15C2C)C43 (stereo not drawn) | 9.38
85 | Cc1cc(NC(=O)CN2CCCCCCC2)no1.O=C(O)C(=O)O | 4.68
86 | CCOC(=O)C1(CCCc2ccccc2)CCN(C(=O)CCC2=NNC(=O)CC2)CC1 | 18.2
87 | CCOC(=O)N1CCC(N(C(=O)Nc2ccc(Cl)c(Cl)c2)C(C)CC)CC1 (stereo not drawn) | 12
